In the assay the target is SARS-CoV-2 印度delta突变型假病毒 (SARS-CoV-2 delta variant). Put plainly: cell-based or functional assay.

B1: R-30-FC (Fc fusion)
chain: QVQLQESGGGLVQSGGSLRLSCTASGGIIRLNSMGWYRQAPGKQREPVATIVSDVGTNYADSVKGRFTISRDNAKNTIYLQMNSLKFEDTAVYYCVADRAFVLRGEYEYWGQGTQVTVSS[letters of human IgG1 Fc omitted]
notes: also called R-30-FC双价纳米抗体; 双价纳米抗体
Consider B1, for which the “假病毒中和 IC50 (luciferase signal, Opti-HEK293/ACE2 cells)” value stood at 0.295 nM.

(Values after patent publication CN117069831A (SHENZHEN BGI LIFE SCIENCE RES INSTITUTE, dated 2023).)
